Laboratory results as given in PubChem BioAssay AID1347428 (National Center for Advancing Translational Sciences (NCATS), 2020).
Out of some 91,000 compounds screened, about 290 (0.32%) were called active. Inconclusive means that the source gave no clear call. Such entries were picked first, then a sample of the others. Calls come from the whole dose curve; as a rule, active = well fitted inhibition curve with a large enough effect; inconclusive = small, poorly fitted or top-dose-only effect; inactive = no such curve, though single readings can be large or run the other way. Potencies beside an inconclusive call are fits to weak or partial responses and may not hold up.

molecular target: Single-stranded DNA cytosine deaminase (Homo sapiens) (UniProt Q9GZX7); experiment: Primary qHTS assay for inhibitors of Activation Induced Cytidine Deaminase (AID): AID signal; conditions: AID deamination FRET fluorescence, UDG-coupled, 4 h; activity change, negative = inhibition: at 115 µM (top of the series); note: nearly all actives have a fitted effect of over 25% in size
Chain of UniProt Q9GZX7 (Q9GZX7 whole entry, looked up): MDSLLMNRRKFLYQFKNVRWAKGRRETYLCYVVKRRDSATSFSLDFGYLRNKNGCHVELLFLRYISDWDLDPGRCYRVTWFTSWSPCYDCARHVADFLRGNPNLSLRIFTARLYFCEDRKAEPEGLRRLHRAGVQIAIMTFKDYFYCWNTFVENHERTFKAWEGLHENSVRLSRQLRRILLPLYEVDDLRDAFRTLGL
% is set by controls: 0 for no effect and ±100 for the full control effect; potency is the fitted concentration of half-maximal effect; tags give direction and shape of the fitted curve.

SMILES	Potency	activity change, negative = inhibition
COC(=O)c1cc(-c2c(C)oc3cc(OC(C)C)ccc3c2=O)c(C)o1	inconclusive: 79.4 µM [inhibitor, partial curve, poor fit]	
CCc1nnc2c(Nc3ccc(Br)c(C)c3)nc3ccccc3n12	inconclusive: 6.31 µM [inhibitor, full curve, poor fit]	
COc1ccc(S(=O)(=O)Nc2nc3ccccc3nc2NCc2ccccc2OC)cc1		inactive: 0.397%
Cc1cc(C)cc(OCC(=O)NCC(c2ccc(Cl)cc2)N2CCCCC2)c1 (stereo not given)	inconclusive: 39.8 µM [inhibitor, partial curve, poor fit]	
Cc1cccc(Cn2c(SCc3ccc(C(=O)N4CCCCCC4)cc3)nc3ccncc32)c1	inconclusive: 50.1 µM [inhibitor, partial curve]	
Brc1csc(CN2CCc3nc(Nc4ccccc4)ncc3C2)c1	inconclusive: 25.1 µM [inhibitor, single point]	
O=C(c1cccc(Cl)c1)n1nc(-c2ccco2)nc1NCc1cccs1	inconclusive: 56.2 µM [inhibitor, single point]	
CCN(C(=O)Cn1c(C(=O)OC)cc2oc3ccccc3c21)c1cccc(C)c1	inconclusive: 100 µM [inhibitor, single point]	
CCOC(=O)c1c(Oc2ccc(C(=O)OC)cc2)nnc(-c2ccccc2)c1-c1ccccc1	inconclusive: 39.8 µM [inhibitor, partial curve]	
Cc1cc(C)cc(-n2cnc3cc(C(=O)NCCc4ccccc4)ccc32)c1	inconclusive: 28.2 µM [inhibitor, full curve, poor fit]	
COc1ccccc1Nc1c2c(nc3ccc(NC(=O)/C=C/c4cccc(OC)c4OC)cc13)CCCC2	inconclusive: 25.1 µM [inhibitor, full curve, poor fit]	
COc1cc(OC)c(NC(c2nnc(-c3ccccc3)o2)c2ccc(F)cc2Cl)cc1Cl (stereo not given)		inactive: -16.4%
CC(C)C(=O)N1N=C(c2ccco2)CC1c1ccc2nccnc2c1 (stereo not given)	inconclusive: 89.1 µM [inhibitor, single point]	
COc1ccccc1-n1cc(-c2ccc(C)cc2)nc1S(=O)(=O)CC(=O)Nc1ccccc1C(F)(F)F	inconclusive: 50.1 µM [inhibitor, partial curve, poor fit]	
COc1cccc(CNC(=O)c2c(C)nn(-c3cccc(C)c3)c2-n2cccc2)c1	inconclusive: 50.1 µM [inhibitor, partial curve, poor fit]	
COc1cccc(Cn2cc(C(=O)c3ccccc3)c(=O)c3cc4c(cc32)OCO4)c1	inconclusive: 56.2 µM [inhibitor, partial curve, poor fit]	
CC(C)CNC(=O)c1ccccc1N		inactive: -2.94%
Cc1c(C(=O)NCc2ccc(Cl)cc2)oc2ccc3c(c12)C(=O)CC(C)(C)O3	inconclusive: 20 µM [inhibitor, partial curve, poor fit]	
CC1CN(C(=O)N2CCC(C(=O)NCCCc3ccccc3)CC2)c2cc(Cl)ccc2O1 (stereo not given)	inconclusive: 89.1 µM [inhibitor, single point]	
CC(=O)Nc1cccc(NC(=O)c2cc3c(=O)n4cccc(C)c4nc3n2C)c1	inconclusive: 79.4 µM [inhibitor, single point]	

SMILES	Potency	activity change, negative = inhibition
COc1ccc2c(c1)c1c(c(=O)n(CCc3ccccc3)c(=O)n1Cc1cccc(Cl)c1)n2C	inconclusive: 35.5 µM [inhibitor, full curve]	
Cc1ccc(Cn2nnc3c(=O)[nH]c(C4CCN(C(=O)Cc5ccccc5F)CC4)nc32)cc1	inconclusive: 56.2 µM [inhibitor, partial curve, poor fit]	
CSc1ccc(CN(C)CC(=O)NC(=O)NCc2ccco2)cc1		inactive: 8.55%
CCN(CC)c1ccc(NC(=O)c2cccn2-c2nnc(N3CCCCC3)s2)c(C)c1	inconclusive: 89.1 µM [inhibitor, single point]	
Cc1ccc(-n2cc(-c3ccccc3)c3c(N4CCCCC4)ncnc32)cc1	inconclusive: 10 µM [inhibitor, full curve, poor fit]	
O=C1CC(c2ccccc2)Sc2ccccc2N1Cc1ccc(F)cc1 (stereo not given)	inconclusive: 15.8 µM [inhibitor, full curve, poor fit]	
CC(C)(C)c1ccccc1NC(=O)CCC(=O)O		inactive: -2%
CCOc1ccccc1NC(=O)c1c(NC(=O)COc2ccccc2)sc2c1CCCC2		inactive: 23.6%
COc1ccc(C)cc1NC(=O)C(=O)NCC(c1cccnc1)N1CCc2ccccc21 (stereo not given)	inconclusive: 22.4 µM [inhibitor, full curve, poor fit]	
CCCCN1CC(c2nc3ccccc3n2CCCCOc2cccc(C)c2C)CC1=O (stereo not given)	inconclusive: 50.1 µM [inhibitor, partial curve, poor fit]	
CCOc1ccc(CN(CCc2ccc3c(c2)OCO3)Cc2cc(OC)c(OC)cc2OC)cc1	inconclusive: 28.2 µM [inhibitor, partial curve, poor fit]	
O=C(Nc1ccc(F)cc1)c1ccc[n+]([O-])c1		inactive: -5.64%
N#CC1=C2SCN(C3CCCCC3)CN2C(=O)CC1c1ccc(Cl)cc1 (stereo not given)	inconclusive: 100 µM [inhibitor, single point]	
CCOc1ccc(N(CC)C(=O)c2cc3c(s2)-c2ccccc2OC3)cc1	inconclusive: 50.1 µM [inhibitor, partial curve, poor fit]	
O=C(CSCc1ccc(F)cc1)N1CCc2c([nH]c3ccccc23)C1c1ccc(Cl)cc1 (stereo not given)	inconclusive: 31.6 µM [inhibitor, full curve, poor fit]	
Cc1ccc(-n2c(Cc3ccccc3)nnc2SCc2nc(-c3cccs3)no2)cc1C	inconclusive: 50.1 µM [inhibitor, partial curve, poor fit]	
Cc1cccc(OCC(=O)Nc2nnc(S(=O)(=O)N3CCc4ccccc43)s2)c1	inconclusive: 89.1 µM [inhibitor, single point]	
CC(=O)c1c(C)oc2c1cc(NS(=O)(=O)c1ccc(Cl)c(C)c1)c1ccccc12	inconclusive: 39.8 µM [inhibitor, single point]	
Cc1cccc(N2CCN(C(=O)CS(=O)(=O)Cc3nc(-c4ccccc4C)oc3C)CC2C)c1 (stereo not given)	inconclusive: 17.8 µM [inhibitor, full curve, poor fit]	
CCOc1ccc(N(Cc2ccccc2)C(=O)c2nc(S(C)(=O)=O)ncc2Cl)cc1	inconclusive: 20 µM [inhibitor, single point]	

SMILES	Potency	activity change, negative = inhibition
COc1ccc(OC)c(NC(=O)Cn2c(=O)cc(-c3ccccc3)c3c(C)nn(C)c32)c1	inconclusive: 79.4 µM [inhibitor, partial curve, poor fit]	
Cc1ccc(NC(=O)c2ccccc2Br)c(C(=O)c2ccccc2)c1	inconclusive: 79.4 µM [inhibitor, partial curve, poor fit]	
CCCCNc1nc(-c2ccccc2F)nc2ccccc12	inconclusive: 35.5 µM [inhibitor, partial curve, poor fit]	
Cc1cccc(-n2nc(C)c(C(=O)Nc3cc(C)ccc3C)c2-n2cccc2)c1	inconclusive: 10 µM [inhibitor, full curve, poor fit]	
CSc1nn(Cc2ccc(C)cc2)c(N)c1S(=O)(=O)c1ccccc1	inconclusive: 56.2 µM [inhibitor, single point]	
COc1ccccc1C(=O)Oc1ccc(C(c2c(C)[nH][nH]c2=O)c2c(C)[nH][nH]c2=O)cc1	inconclusive: 39.8 µM [inhibitor, single point]	
Cc1cccc(C)c1OCCCn1c(CCNC(=O)C2CCCCC2)nc2ccccc21	inconclusive: 31.6 µM [inhibitor, full curve]	
CCc1ccc(NC(=O)CN2C(=O)C(c3ccc(Cl)cc3)=NC23CCCCC3)cc1	inconclusive: 14.1 µM [inhibitor, full curve, poor fit]	
CCc1ccc(-n2c(=O)c3c4c(sc3n(CC(=O)N3CCCCC3CC)c2=O)CCC4)cc1 (stereo not given)	inconclusive: 50.1 µM [inhibitor, partial curve, poor fit]	
O=C(CN1C(=O)COc2ccccc21)NCCc1ccc(Cl)cc1	inconclusive: 89.1 µM [inhibitor, single point]	
O=C(NC(c1ccc(Cl)cc1)C1CC1)c1ccccc1C(F)(F)F (stereo not given)		inactive: -0.18%
CCCCC(=O)N1CCN(c2nc(-c3ccco3)c3c(c2C#N)CCCC3)CC1	inconclusive: 44.7 µM [inhibitor, partial curve, poor fit]	
Cc1cc(-n2c(C)cc(C(=O)CSc3nnc(COc4ccccc4Cl)n3C)c2C)no1		inactive: -15.8%
N#Cc1cccc(S(=O)(=O)NCC(=O)O)c1		inactive: 15.6%
Fc1ccccc1Cc1cn2cc(-c3ccc(Cl)cc3)nc2s1		inactive: 4.57%
CC(NC(=O)c1ccc2c(c1)CCN2S(=O)(=O)c1ccccc1)c1ccccc1 (stereo not given)	inconclusive: 35.5 µM [inhibitor, full curve, poor fit]	
Cc1ccc2onc(CC(=O)N3CCN(c4cc(Cl)ccc4C)CC3)c2c1	inconclusive: 12.6 µM [inhibitor, full curve, poor fit]	
COC(=O)c1ccc(-c2csc(NC(=O)c3cc(=O)c4ccccc4o3)n2)cc1	inconclusive: 44.7 µM [inhibitor, full curve]	
Cc1ccc2c(c1)C(=O)C(=O)N2CCOc1ccccc1C		inactive: -22.6%
CCCCCn1c(CCNC(=O)c2ccc(F)cc2)nc2ccccc21	inconclusive: 56.2 µM [inhibitor, partial curve, poor fit]	
